Assay results as given in the supplement of paper PMC10126150.
Sequences with one replicate were seen in a single cluster, so their values are uncertain.

The sequences below were run on ATP (assay: switch fluorescence ratio, 500 uM ATP over buffer (Cy3 cluster intensity, sum of 5 cycles each) (fold (ratio)); higher = stronger signal-on switching upon ATP binding; sequences stand for … in TCGTCGGCAGCGTCAGATGTGTATAAGAGACAGTTTTTTTTTTTTTTTTTTTTTTTTT…TC). Conditions: aptamer strand: ATP DNA aptamer (quencher-CACCTGGGGGAGTATTGCGGAGGAAGG + anchor), 100 nM annealed; ATP concentration: 500 uM; one replicate.
In short: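 Imaging in selection buffer was followed by imaging after 15 min with 500 uM ATP at 22 °C, for Cy3-labelled switching-strand clusters annealed to 100 nM quencher-labelled ATP aptamer on a modified Illumina MiSeq flow-cell. Five of these buffer/ATP cycles ran, separated by NaOH stripping and re-annealing. The fluorescence ratio per cluster is summed target-cycle over summed buffer-cycle Cy3 intensity, averaged per switch-domain sequence; clusters outside 100-1000 RFU were removed.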
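Also: ATP exposure 15 min at 22 °C before imaging.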

Sequence	switch fluorescence ratio
TGATAGCATT	1.03
TGATAGGTAC	1.06
TGATAGTGTT	0.953
TGATATAAGG	0.991
TGATATCGCG	0.943
TGATATCGGG	0.977
TGATATTGCC	1.09
TGATCATCAG	0.949
TGATCCCAAA	0.986
TGATCCCTGT	1.02
TGATCGGGTC	1.05
TGATCGTTCA	0.99
TGATCTTATA	0.968
TGATGATAGG	1
TGATGCATGT	0.992
TGATGCGGCT	1.01
TGATGCGT	0.999
TGATGCTGGT	0.997
TGATGGAGCG	0.986
TGATGTACAC	1
TGATGTCCTT	0.975
TGATGTTACT	1.02
TGATGTTCCT	1.04
TGATGTTTAC	1
TGATGTTTCA	0.982
TGATTAATAC	1.21

Sequence	switch fluorescence ratio
TGATTACACT	1.01
TGATTATCTA	0.973
TGATTATGCT	0.95
TGATTCCGAG	1.14
TGATTGCAGG	1.01
TGATTGGTAT	1.09
TGATTGTAAG	1.01
TGATTGTTGC	0.995
TGATTTGCT	1.01
TGATTTTAC	1.05
TGCAAAACCG	1.05
TGCAAAAGCA	1.08
TGCAAACTCG	1.4
TGCAAAGCTA	0.968
TGCAAAGGCA	0.982
TGCAAATGAT	0.991
TGCAAATTAA	0.97
TGCAACCCGC	1.03
TGCAAGGATA	0.983
TGCAATAACG	1.77
TGCAATCAAC	4.08
TGCAATGG	2.78
TGCAATGTCG	1.16
TGCAATTGGC	1.19
TGCACAAGTC	1.04
TGCACAATTT	1.02

Sequence	switch fluorescence ratio
TGCACAGCAC	1.01
TGCACATTTT	1.02
TGCACTATGC	1.03
TGCACTGGTT	1.02
TGCACTGTAG	1.12
TGCACTTTCG	1.04
TGCACTTTCT	0.977
TGCAGAAATA	1.02
TGCAGAGGCA	1.03
TGCAGCAGAA	1.14
TGCAGCCGGT	1.09
TGCAGCTCTA	0.992
TGCAGGATAG	1.01
TGCAGTATG	1.01
TGCAGTATTA	1.08
TGCAGTGCAG	0.969
TGCATAACCC	1
TGCATACTAT	1.09
TGCATATAAA	1.2
TGCATCCAGT	0.992
TGCATCTACG	1.1
TGCATGGGCA	0.989
TGCATGGGGC	1.01
TGCCAGCGTA	0.97
TGCCATACG	1.13
TGCCATGAGC	0.974

Sequence	switch fluorescence ratio
TGCCATTAGT	0.952
TGCCCATCAG	1.02
TGCCCATCTT	0.982
TGCCCCAAAA	1.02
TGCCCCGAGC	1.01
TGCCCCGGCA	0.978
TGCCCGATAG	1.02
TGCCCGGCGT	1.04
TGCCCGGCTG	1.01
TGCCCGGGAC	2.12
TGCCCTCATA	0.962
TGCCGATGCT	1.01
TGCCGCACTT	1.07
TGCCGCAGGC	0.972
TGCCGCCGGA	1.04
TGCCGGCGCG	1.05
TGCCGGGCGC	1
TGCCGTAATA	1.57
TGCCGTGACT	0.987
TGCCGTGGAG	1.03
TGCCTATCTT	0.977
TGCCTCGCTT	1.01
TGCCTGAGTA	0.978
TGCCTTAGTT	1
TGCCTTGGTA	1.03
TGCCTTTAGA	0.971

Sequence	switch fluorescence ratio
TGCGAAATCG	0.974
TGCGAATCGA	0.939
TGCGAATGGG	0.996
TGCGAGTACA	0.984
TGCGAGTCAT	0.991
TGCGCAACGA	1.03
TGCGCCCAAA	0.97
TGCGCGAAGA	1.04
TGCGCTCATA	1.01
TGCGCTTGTA	0.997
TGCGGAATTA	0.969
TGCGGACACA	0.953
TGCGGGCTTG	0.979
TGCGGTTGGC	1.03
TGCGTACAGG	1.04
TGCGTATACG	0.953
TGCGTATATC	1.12
TGCGTGTGG	0.967
TGCGTTAATT	1.03
TGCGTTCCTC	2.08
TGCGTTTCAT	1.01
TGCGTTTTAC	1.15
TGCGTTTTTT	1
TGCTAAAAGA	1.01
TGCTAAACTT	1.02
TGCTAACCGT	1

Sequence	switch fluorescence ratio
TGCTAACTCT	1
TGCTACCGCC	1.09
TGCTACGCCG	1.13
TGCTAGAAGG	0.978
TGCTAGACCG	1.04
TGCTATCGTT	0.988
TGCTATGAAT	0.998
TGCTATTGCA	1.06
TGCTCAAGCT	1.01
TGCTCATCAT	0.976
TGCTCCATG	0.984
TGCTCCGAG	1.66
TGCTCGCTCT	0.999
TGCTGATTGG	0.943
TGCTGGAGTC	1.03
TGCTGGATTG	1.02
TGCTGGCCAT	0.983
TGCTGGTGTG	1.03
TGCTGTACTG	1.09
TGCTGTCACG	0.981
TGCTGTTATT	1.72
TGCTTATGAG	1.02
TGCTTCGCCG	0.98
